The whole screen tested about 310,000 compounds, of which about 14,000 (4.5%) showed an effect of 50% or more. The effect is printed as a negative number. The list shows a part of the results.
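Note: peak tail current of the secondary pulse compared with the same well before compound.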

The target in the assay is human ether-à-go-go-related gene (hERG) potassium channel (human, UniProt Q12809). Put plainly: primary screen, population patch clamp on CHO cells stably expressing hERG.
Sequence of human ether-à-go-go-related gene (hERG) potassium channel (Q12809 whole entry, looked up): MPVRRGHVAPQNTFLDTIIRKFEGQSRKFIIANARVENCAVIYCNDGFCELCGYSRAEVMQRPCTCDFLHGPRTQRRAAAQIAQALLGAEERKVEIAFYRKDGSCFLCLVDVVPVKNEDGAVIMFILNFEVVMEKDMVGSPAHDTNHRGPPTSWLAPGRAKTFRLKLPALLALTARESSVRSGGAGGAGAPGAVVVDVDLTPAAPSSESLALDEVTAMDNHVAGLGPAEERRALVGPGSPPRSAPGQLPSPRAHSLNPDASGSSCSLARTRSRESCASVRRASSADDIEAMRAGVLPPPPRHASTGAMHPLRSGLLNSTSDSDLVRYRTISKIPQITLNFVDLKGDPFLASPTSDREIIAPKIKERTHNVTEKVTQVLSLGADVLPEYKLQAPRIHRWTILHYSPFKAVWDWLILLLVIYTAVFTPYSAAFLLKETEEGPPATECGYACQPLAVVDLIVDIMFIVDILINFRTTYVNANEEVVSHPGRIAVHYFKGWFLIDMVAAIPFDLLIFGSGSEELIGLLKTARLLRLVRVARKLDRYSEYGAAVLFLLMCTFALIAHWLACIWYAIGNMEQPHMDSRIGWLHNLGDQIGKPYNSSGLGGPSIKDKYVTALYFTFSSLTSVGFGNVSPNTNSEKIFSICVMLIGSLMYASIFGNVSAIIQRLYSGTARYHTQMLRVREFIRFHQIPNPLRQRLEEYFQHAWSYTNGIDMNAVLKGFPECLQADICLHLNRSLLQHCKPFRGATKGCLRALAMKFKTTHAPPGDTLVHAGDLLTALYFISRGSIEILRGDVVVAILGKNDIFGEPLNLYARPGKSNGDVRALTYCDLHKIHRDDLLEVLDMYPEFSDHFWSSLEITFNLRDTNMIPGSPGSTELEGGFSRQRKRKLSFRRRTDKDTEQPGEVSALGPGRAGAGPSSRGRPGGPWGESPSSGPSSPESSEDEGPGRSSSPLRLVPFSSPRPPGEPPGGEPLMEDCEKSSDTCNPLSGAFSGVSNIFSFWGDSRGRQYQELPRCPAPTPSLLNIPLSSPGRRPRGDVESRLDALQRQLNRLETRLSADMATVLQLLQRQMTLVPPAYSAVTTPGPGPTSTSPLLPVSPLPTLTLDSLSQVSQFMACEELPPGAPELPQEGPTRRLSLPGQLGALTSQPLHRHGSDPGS
As to `COc1ccccc1Oc1c(C)oc2c(CN3CCN(CCO)CC3)c(O)ccc2c1=O`, the “hERG current change (%, negative = inhibition) at 10uM” value came out at 14.8%. As for `Cc1cccc2c(CC(=O)O)noc12`, the figure is -0.934%; as for `COc1ccc(CCNC(=O)c2ccc3c(c2)NC(=O)C(CSCc2cc(C)ccc2C)N3)cc1OC` (stereo not drawn), 12.2%; as for `CC(C)C(NC(=O)c1ccccc1NC(=O)c1ccccc1)C(=O)NNC(=O)c1ccncc1` (stereo not drawn), 2.91%.

For the compound `CCCn1nnnc1SCC(=O)Nc1nnc(CC)s1`, the “hERG current change (%, negative = inhibition) at 10uM” value is listed as 12%. Regarding `Cc1ccccc1N(C)S(=O)(=O)c1ccc2[nH]cc(C(=O)NCC3CCCO3)c(=O)c2c1` (stereo not drawn), the “hERG current change (%, negative = inhibition) at 10uM” value was -24%. Consider `CC1Oc2ccccc2C=C1/C=N/NC(=O)[C@@H](C)NC(=O)OC(C)(C)C` (stereo partly drawn), for which the “hERG current change (%, negative = inhibition) at 10uM” value was -8.91%. As for `Cc1nc2ccccn2c1-c1nnco1`, the figure is 5.42%; as for `CCNC(=S)N1CCC(Cc2ccccc2)CC1`, 9.93%.

As to `CCOC(=O)/C(C#N)=C(C)/C=C1\Sc2ccccc2N1CC`, the “hERG current change (%, negative = inhibition) at 10uM” value was -15.7%. Regarding `CN1CCc2c(sc3c2c(=O)n(-c2ccccc2)c2nncn32)C1`, the “hERG current change (%, negative = inhibition) at 10uM” value amounted to 4.92%.

For the compound `O=C(CSc1n[nH]c(-c2cccs2)n1)NCc1ccc2c(c1)OCO2`, the “hERG current change (%, negative = inhibition) at 10uM” value is recorded as -13.3%.

For the compound `O=C(Cc1ccccc1)NC1(O)C(=O)c2ccccc2C1=O`, the “hERG current change (%, negative = inhibition) at 10uM” value is reported as 9.43%. As for `c1ccc2c(c1)ncn2-c1ccc(-c2ccnc3ncnn23)cc1`, the “hERG current change (%, negative = inhibition) at 10uM” value is reported as -68%. As for `COc1ccc(NC(=O)/C=C/C(=O)O)c([N+](=O)[O-])c1`, the figure is -10.9%. `CCC(C)(C)NC(=O)CN(Cc1ccc(F)cc1)C(=O)CCC(=O)Nc1ccccn1`: the “hERG current change (%, negative = inhibition) at 10uM” value was -12.8%.

As for `CCOc1ccccc1C(=O)NCC(=O)NCc1ccc(S(=O)(=O)N2CCOCC2)cc1`, the “hERG current change (%, negative = inhibition) at 10uM” value is listed as -3.71%. As for `O=C(N/N=C/c1cc(Br)c(O)c(Br)c1)C1CC1`, the figure is 0.456%; as for `Cc1cc(C)cc(NS(=O)(=O)c2ccc(F)cc2)c1`, 2.69%; as for `Cc1nn(Cc2c(Cl)cccc2Cl)c(C)c1NC(=O)c1cc(C(C)C)on1`, 12.7%.

On to `CN=C1SC(CC(=O)Nc2ccccc2F)C(=O)N1C` (stereo not drawn), for which the “hERG current change (%, negative = inhibition) at 10uM” value came out at 19.3%. As for `Cc1ccc(S(=O)(=O)N(C)CC(=O)N2CCN(Cc3ccc4c(c3)OCO4)CC2)cc1`, the figure is -66.6%.

In the case of `CSc1ccccc1OCc1cc(C(=O)N2CCc3sccc3C2)no1`, the “hERG current change (%, negative = inhibition) at 10uM” value amounted to 7.47%. Regarding `O=C(CSc1ccc(/C=N/NC(=O)c2cccc(F)c2)o1)Nc1ccccc1`, the “hERG current change (%, negative = inhibition) at 10uM” value is on record as 4.96%. As for `CCOCCCNC(=O)c1ccc2nc(-c3ccc(OC)c(OC)c3)c(-c3ccc(OC)c(OC)c3)nc2c1`, the figure is 6.99%; as for `O=C(Nc1cccnc1)c1ccc(Br)s1`, -2.68%; as for `CC1(C)COC(Nc2cccc(Cl)c2)=N1`, 14.7%.

Regarding `CCCOc1ccc(C(=O)NC(=S)Nc2nc(C)c(C(=O)N(C)C)s2)cc1`, the “hERG current change (%, negative = inhibition) at 10uM” value is 0.536%. `Cn1c(CC(=O)NNC(=O)c2ccc(F)cc2F)nc2ccccc21`: the “hERG current change (%, negative = inhibition) at 10uM” value was -7.56%. As for `Cc1cc(C)cc(N2C(=O)CC(c3ccccc3)CC2=O)c1`, the figure is 5.14%; as for `CNc1cc([N+](=O)[O-])ccc1OCc1ccccc1`, 1.03%; as for `COc1cccc(OCC(=O)O/N=C(\N)c2ccncc2)c1`, 18.9%. As for `Cc1ccc(NC(=S)NC2CC3CCC(C2)N3Cc2ccco2)cc1C` (stereo not drawn), the figure is -36.1%; as for `COc1ccccc1C(=O)Nc1ccnn1C1CCN(Cc2csc(C(C)=O)c2)CC1`, -72.9%; as for `C/C(=C\C(=O)Nc1nccs1)c1ccccc1`, 0.853%. For the compound `CCOCCCn1cnc2c(c1=O)c1nc3ccccc3nc1n2-c1ccccc1`, the “hERG current change (%, negative = inhibition) at 10uM” value is listed as -30.6%. With `COC(=O)CCC(=O)N1CCCC(N2CCN(c3ccc(OC)cc3)CC2)C1` (stereo not drawn), the “hERG current change (%, negative = inhibition) at 10uM” value is given as -1.47%. As for `COc1ccc(C(=O)CC(=O)C(=O)Nc2cccc(F)c2)cc1`, the figure is 4.74%; as for `CC(SCc1ccccc1)C(=O)Nc1ccc2c(c1)OCO2` (stereo not drawn), -7.49%; as for `Cc1cc2cc(CN(CCCN3CCOCC3)C(=O)NC3CCCCC3)c(=O)[nH]c2cc1C`, -37.8%. As for `Cc1nnc(NC(=O)CSc2nnc(-c3ccoc3C)n2CC(C)C)s1`, the figure is 5.79%; as for `Clc1ccc(/C(Cc2nc3ccccc3[nH]2)=N\Nc2ccccc2)cc1`, -0.238%.

As to `c1ccc(-c2cccc(-c3ccccn3)n2)nc1`, the “hERG current change (%, negative = inhibition) at 10uM” value was 0.0807%. In the case of `Cc1ccccc1OCCCC(=O)Nc1ccc(Br)cc1`, the “hERG current change (%, negative = inhibition) at 10uM” value is reported as 5.24%.

Regarding `Cc1ccccc1-n1ncc2c1CC(C)(C)CC2NC(=O)CN1CCCC1=O` (stereo not drawn), the “hERG current change (%, negative = inhibition) at 10uM” value was 9.7%.

(Values after publication PMC4336329 (PLoS ONE, 2015).)
